The record followed here is PubChem BioAssay AID463173 (ICCB-Longwood Screening Facility, Harvard Medical School, 2010).

About 1,700 (3.3%) of roughly 52,000 compounds were called active. No stated cut-off is given here; in the data, active means survival mostly below about 52% (no sharp cut-off); inactive means mostly above about 56%. The list shows a part of the results.

The assay concerns Wild type. Kind of assay: S. aureus survival, RN4220 and DeltatarO strains – OD600, teichoic acid synthesis inhibitors, primary screen (AID 463173). The following applies: S. aureus RN4220 wild type/DeltatarO growth, OD600, 18 h, stronger effect = lower value, screened at 18.75 µg/mL (by protocol).
`Cc1nn2c(=O)cc(COC(=O)c3ccccc3NC(=O)COc3ccccc3C)nc2s1`: the survival is inactive: 85%.

Take `O=C(NCc1ccccc1F)c1ccc(CSc2nc3cccnc3n2Cc2ccccc2)cc1`: the survival was inactive: 78%.

With `COC(=O)c1cc2sc(Cl)cc2n1CC(=O)Nc1cc(C)cc(C)c1`, the survival was inactive: 88%.

On to `COc1ccc(OC)c(CNc2nc3ccc(C)cc3n3nnnc23)c1`, for which the survival is inactive: 85%.

As for `CCc1ccc(NC(=O)CS(=O)CC(=O)Nc2ccc(F)cc2F)cc1` (stereo not drawn), the survival is inactive: 105%.

Consider `COc1ccc(OC)c(NC(=O)[C@H](CSCc2ccccc2)N2Cc3ccccc3C2=O)c1`, for which the survival is inactive: 117%.

As for `N#Cc1nc(-c2ccc(COc3ccccc3)o2)oc1N1CCCCC1`, the survival is inactive: 72%.

As to `COC(=O)c1cc2occc2n1CC(=O)Nc1ccc(N(C)C)cc1`, the survival was inactive: 96%.

For `Cc1ccc(CNC(=O)Cn2c(=O)n(-c3ccc(C)cc3)c(=O)c3c2c2cc(C)ccc2n3C)cc1`, the survival was inactive: 152%.

Turning to `COC(=O)c1c(N)n(-c2ccc(OC)c(OC)c2)c2nc3ccccc3nc12`, the survival was inactive: 67%.

In the case of `CCCCCC1CC(CC(C)C(=O)Nc2nncs2)C(=O)O1` (stereo not drawn), the survival was inactive: 116%.

Consider `N#CC1=C2SCN(C3CCCCC3)CN2C(=O)CC1c1ccc(Cl)cc1` (stereo not drawn), for which the survival was inactive: 81%.

`Cc1ccccc1NC(=O)Cn1c(=O)n(Cc2ccccc2)c(=O)c2c(C)c(C)sc21`: the survival was inactive: 126%.

Consider `CCC(Sc1nnc2c3ccccc3n(CC)c2n1)C(=O)Nc1nnc(C(C)C)s1` (stereo not drawn), for which the survival is inactive: 68%.

With `COc1ccc(-c2cc3nc(C4CCN(C(=O)OC(C)(C)C)CC4)c(C(=O)Nc4cc(C)cc(C)c4)cn3n2)cc1`, the survival was inactive: 79%.

Turning to `Cn1c(=O)cc(SCC(=O)N2CCN(c3ccccc3F)CC2)c2ccccc21`, the survival is inactive: 73%.

`COc1ccc2c(CNCCc3cccs3)c(C(=O)O)n(Cc3ccc(F)cc3Cl)c2c1`: the survival was inactive: 115%.

`CCCCN1CC(c2nc3ccccc3n2CCCCOc2cccc(C)c2C)CC1=O` (stereo not drawn): the survival is active: -13%.

As to `CCOc1ccc(CN(CCc2ccc3c(c2)OCO3)Cc2cc(OC)c(OC)cc2OC)cc1`, the survival was inactive: 49%.

Take `N#CCCn1cc(CO)c(-c2ccccc2)n1`: the survival was inactive: 115%.

Take `CCOc1ccc(NC(=O)CC2C(=O)N(c3cccc(C)c3)C(=O)N2Cc2cccs2)cc1` (stereo not drawn): the survival is inactive: 85%.

Take `CCCN1CCN(CCCNC(=O)c2ccc3nc(Cc4ccccc4)oc3c2)CC1`: the survival is inactive: 75%.

`COc1ccc(C)cc1NC(=O)c1cc(S(=O)(=O)N2CCCCC2)c[nH]1`: the survival was inactive: 82%.

For the compound `COc1cc(NC(=O)CCc2c(C)nn(-c3ccc(N4CCCCC4)nn3)c2C)cc(OC)c1OC`, the survival is inactive: 80%.

`Cc1cc(C)cc(NC(=O)CCCc2nc(-c3ccco3)no2)c1`: the survival is inactive: 96%.

As for `Cc1cc(-n2c(C)nc3ccccc3c2=O)ccc1NC(=O)c1ccccc1[N+](=O)[O-]`, the survival is inactive: 88%.

Regarding `COc1cccc(CCNC(=O)c2c(O)nc3c(C)cccn3c2=O)c1`, the survival was inactive: 121%.

As for `CC(Sc1nnc2ccc3ccccc3n12)C(=O)Nc1ccc(Cl)cc1` (stereo not drawn), the survival was inactive: 80%.

For `CCC1(CC)Cc2ccccc2-c2nc(NCCCO)[nH]c(=O)c21`, the survival is inactive: 106%.

On to `CCCc1cc(=O)[nH]c(Nc2cc(C)ccc2OC)n1`, for which the survival is inactive: 86%.

Take `C=CC(=O)NC(C)(C)Cc1ccccc1`: the survival was inactive: 112%.

Turning to `Cc1cc2ccc(C)c(C)c2nc1SCC#N`, the survival was inactive: 112%.

As to `CCc1ccc(NC(=O)CC2C(=O)N(c3cccc(OC)c3)C(=O)N2Cc2ccc(F)cc2)cc1` (stereo not drawn), the survival was inactive: 73%.

On to `COc1ccccc1NC(=O)Cn1c(SCC(=O)Nc2ccc(F)cc2)nc2ccccc21`, for which the survival was inactive: 73%.

Regarding `O=C(NCCCN1CCOCC1)c1cc2ccccc2oc1=O`, the survival is inactive: 91%.

In the case of `Cc1nc2ccn(Cc3ccccc3)c(=O)c2cc1C(=O)N1CCN(c2ccc(F)cc2)CC1`, the survival is inactive: 66%.

`CCc1ccc(NC(=O)CC2C(=O)N(c3cccc(C)c3)C(=O)N2Cc2ccc(F)cc2)cc1` (stereo not drawn): the survival was inactive: 72%.

Take `Cc1cc(NC(=O)n2ncc3c(C)cccc32)ccc1Br`: the survival is inactive: 95%.

Regarding `COCCc1nn2c(=O)cc(COC(=O)C(c3ccccc3)c3ccccc3)nc2s1`, the survival was inactive: 134%.

For `CCOC(=O)c1cnc2cc(-c3ccc(OCC)cc3)nn2c1-c1ccccc1`, the survival is inactive: 92%.

With `CC(CN(C)C)OC(=O)c1ccc2c(c1)OCO2` (stereo not drawn), the survival was inactive: 110%.

`Cc1cccc(N2CCN(C(c3cc4cc5c(cc4[nH]c3=O)OCO5)c3nnnn3CC3CCCO3)CC2)c1C` (stereo not drawn): the survival was inactive: 102%.

`COc1ccc(NC(=O)CSc2nccn2Cc2ccc3c(c2)OCO3)cc1`: the survival is inactive: 49%.

Regarding `COc1ccc(C)cc1NC(=O)C(=O)NCC(c1cccnc1)N1CCc2ccccc21` (stereo not drawn), the survival is inactive: 67%.

As for `CN(C)CCNC(=O)CN1C(=O)COc2ccc(S(=O)(=O)N3CCCC3)cc21`, the survival is inactive: 80%.

Turning to `Cc1cc(C)c(NC(=O)CSc2ccc(-c3ccccn3)nn2)c(C)c1`, the survival was inactive: 115%.

`CCOc1ccccc1NC(=O)c1c(NC(=O)COc2ccccc2)sc2c1CCCC2`: the survival is inactive: 74%.

As to `COc1ccc(C2=Nc3ccccc3NC(c3cccs3)=N2)cc1`, the survival is inactive: 61%.

With `OCC(O)CNC(=S)NC1CCCCC1` (stereo not drawn), the survival was inactive: 107%.

Turning to `Cc1ccc(-n2c3c(cc(C(=O)Nc4ccccc4C(N)=O)c2=O)C(=O)CC(C)(C)C3)cc1`, the survival is inactive: 76%.

For the compound `O=C1CC(c2ccccc2)Sc2ccccc2N1Cc1ccc(F)cc1` (stereo not drawn), the survival was active: 16%.

`Cc1ccc(-c2cc(C(=O)Nc3ccc(SC(F)F)cc3)no2)cc1F`: the survival was inactive: 86%.

For the compound `COc1ccccc1CNC(=O)c1c[nH]c2ccc(S(=O)(=O)Nc3cc(C)cc(C)c3)cc2c1=O`, the survival is inactive: 67%.

With `CCCOc1ccc(CNC(=O)CCCn2ncn3c(cc4sc(CC)cc43)c2=O)cc1`, the survival was inactive: 88%.

For the compound `CCNS(=O)(=O)c1ccc(NC(=O)CSc2nc(-c3ccco3)cc(C(F)(F)F)n2)cc1`, the survival was inactive: 56%.

On to `COCC[N+]1(C)CCCCC1`, for which the survival is inactive: 100%.

As for `CCCOc1ccc(NC(=O)CC2C(=O)N(c3ccccc3)C(=O)N2Cc2ccco2)cc1` (stereo not drawn), the survival was inactive: 130%.

Turning to `COc1cccc(NC(=O)CCC(=O)N2Cc3ccccc3Oc3ncccc32)c1`, the survival was inactive: 83%.

With `Cc1ccc(CNC(=O)CSc2nc3ccsc3c(=O)n2Cc2ccccc2F)cc1`, the survival was inactive: 121%.

On to `CC(C)CNS(=O)(=O)c1ccc(S(=O)(=O)N2CCCC(C(=O)NC3CCCCC3)C2)cc1` (stereo not drawn), for which the survival is inactive: 110%.

For `Cc1ccc(-n2cc(-c3ccccc3)c3c(N4CCCCC4)ncnc32)cc1`, the survival is inactive: 80%.

As to `CC(C)OC(=O)c1cccc(NC(=O)Cn2nnc3sc4c(c3c2=O)CCCC4)c1`, the survival was inactive: 82%.

In the case of `Cc1cccc(Nc2nnc(-c3ccc(C)c(S(=O)(=O)N4CCCCC4)c3)c3ccccc23)c1`, the survival was inactive: 105%.

For the compound `Cc1ccc(S(=O)(=O)N2CCN(C(=O)c3cc(-c4ccc(Br)cc4)n[nH]3)CC2)c(C)c1`, the survival is inactive: 71%.

On to `O=C1C2C(C(=O)N1CCO)C1C=CC2C12CC2` (stereo not drawn), for which the survival is inactive: 120%.

`COC(=O)C1(CCSC)NC(c2ccc(N(C)C)cc2)C2C(=O)N(C)C(=O)C21` (stereo not drawn): the survival was inactive: 111%.

`CCN(CC)c1ccc(NC(=O)c2cccn2-c2nnc(N3CCCCC3)s2)c(C)c1`: the survival is inactive: 82%.

Regarding `Cc1c(Cl)cccc1-n1ncc(C(=O)N2CCN(c3ncccn3)CC2)c1C1CCN(C(=O)OC(C)(C)C)CC1`, the survival is inactive: 81%.

As for `Cc1ccc(NC(=O)C(Cc2ccccc2)NS(=O)(=O)c2ccc3c(c2)c(=O)n(C)c(=O)n3C)c(C)c1` (stereo not drawn), the survival is inactive: 68%.

As for `CCOc1ccccc1Nc1nc2ccccc2c2nncn12`, the survival is inactive: 83%.

For the compound `COc1cccc2c1cc1c(=O)n(CC(=O)N3CCN(c4cccc(C)c4C)CC3)nc(C)n12`, the survival is inactive: 87%.

On to `CCc1cccc(NS(=O)(=O)c2c(C)[nH]c(=O)[nH]c2=O)c1`, for which the survival was inactive: 84%.

In the case of `COc1ccc(CCNC(=O)CCc2c(C)nc3c4c(C)cc(C)nc4nn3c2C)cc1OC`, the survival was inactive: 86%.

In the case of `CCOc1ccc(CNC(=O)c2ccc3oc(=O)n(Cc4ccccc4)c3c2)cc1`, the survival is inactive: 63%.

For `CC(=O)c1c(C)oc2ccc(N(C(=O)Oc3ccccc3)S(=O)(=O)c3ccc(Cl)cc3)cc12`, the survival is inactive: 77%.

Turning to `Cc1ccc(Cn2nnc3c(=O)[nH]c(C4CCN(C(=O)Cc5ccccc5F)CC4)nc32)cc1`, the survival was inactive: 94%.

With `Cc1ccc(CNC(=O)C2CCN(S(=O)(=O)N3CCCCC3)CC2)cc1`, the survival is inactive: 68%.

In the case of `COc1ccc2c(c1)cc(CNc1ccc(OC)c(OC)c1)c(=O)n2CC(=O)Nc1ccccc1C`, the survival was inactive: 78%.

For the compound `Fc1ccc(N2CCN(c3nc4ccccc4c4nc(-c5ccccc5)nn34)CC2)cc1`, the survival is inactive: 82%.

For the compound `CC1CCN(S(=O)(=O)c2ccc3c(c2)CCN3C(=O)Nc2ccccc2Br)CC1`, the survival was inactive: 88%.

On to `Cc1ccc(S(=O)(=O)Nc2cccc(-c3ccc(N4CCC(C)CC4)nn3)c2)s1`, for which the survival was active: -3%.

As for `COc1ccc(OCC(=O)Nc2ccc(-c3nc4cc(C)cc(C)c4o3)cc2)cc1`, the survival is inactive: 94%.

In the case of `Cc1ccc(NC(=O)C2CCCN(S(=O)(=O)c3ccc4[nH]c(=O)ccc4c3)C2)cc1Cl` (stereo not drawn), the survival is inactive: 86%.

With `COc1ccc(CC(=O)Nc2nc3c(s2)CC(C)CC3)cc1` (stereo not drawn), the survival is inactive: 90%.

For the compound `COc1ccc2c(c1)c1c(c(=O)n(CCc3ccccc3)c(=O)n1Cc1cccc(Cl)c1)n2C`, the survival is inactive: 60%.

Consider `CC(=O)Nc1cccc(NC(=O)c2cc3c(=O)n4cccc(C)c4nc3n2C)c1`, for which the survival was inactive: 113%.

`O=C(NCc1cccc(Cl)c1)c1c2c(nc3ccccc13)C(=O)N(C1CCCCC1)C2`: the survival was inactive: 148%.

Consider `CC1CN(C(=O)N2CCC(C(=O)NCCCc3ccccc3)CC2)c2cc(Cl)ccc2O1` (stereo not drawn), for which the survival was inactive: 84%.
